From the supplement of paper PMC10126150
Values marked as one replicate rest on one cluster of the flow cell; about a third of the high ones do not repeat.

System: ATP
Experiment: switch fluorescence ratio, 500 uM ATP over buffer (Cy3 cluster intensity, sum of 5 cycles each) (fold (ratio)); higher = stronger signal-on switching upon ATP binding; sequences stand for … in TCGTCGGCAGCGTCAGATGTGTATAAGAGACAGTTTTTTTTTTTTTTTTTTTTTTTTT…TC
Details: aptamer strand: ATP DNA aptamer (quencher-CACCTGGGGGAGTATTGCGGAGGAAGG + anchor), 100 nM annealed; ATP concentration: 500 uM; one replicate
Procedure, shortened: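 Between each of five buffer/ATP cycles, the flow-cell was stripped with NaOH and re-annealed. Each cycle imaged Cy3-labelled switching-strand clusters, annealed to 100 nM quencher-labelled ATP aptamer on a modified Illumina MiSeq flow-cell, first in selection buffer and then after 15 min with 500 uM ATP at 22 °C. The fluorescence ratio is summed target-cycle over summed buffer-cycle Cy3 intensity per cluster, averaged per switch-domain sequence, with clusters outside 100-1000 RFU excluded.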
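Also: ATP exposure 15 min at 22 °C before imaging.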

| Sequence | switch fluorescence ratio |
| --- | --- |
| TATGACGGGT | 1.08 |
| TTGTCTGCAT | 1.12 |
| CGAATAGAGT | 1.03 |
| GGCGGGATTA | 1.02 |
| ATTATCGGTT | 1 |
| AGGCACTGGA | 1.04 |
| GCCTCCTGGC | 1.02 |
| TGCGACTATG | 0.938 |
| TAAAGGGCA | 0.984 |
| GTTTACTTGT | 0.983 |
| CGTGTATAG | 1.03 |
| GGCGGATAGC | 1.03 |
| GAACCTCAA | 1 |
| GCAATTAGG | 1.08 |
| GCTGGTGAAG | 1.02 |
| AGATGGTACC | 0.986 |
| TAAAAGAGAG | 1.06 |
| GAGTAATAAA | 1.06 |
| GGAACTTGAT | 1.02 |
| GTCCTATCAG | 0.97 |
| ACTTAGCTAA | 1.09 |
| GGGGCAGGAA | 0.969 |
| TTTTAATGA | 1.04 |

| Sequence | switch fluorescence ratio |
| --- | --- |
| AAGGCGGTGG | 0.971 |
| GATGTTAAAG | 0.964 |
| TATAGTCCGG | 0.998 |
| TCGAATTATC | 1.02 |
| CAGGTCGTCG | 0.936 |
| TTTGTCATAA | 1.02 |
| CGCGAAGAAT | 0.977 |
| GGGAGAACTC | 0.994 |
| ATTGGGATTA | 1 |
| GCGGAGCCAA | 1.21 |
| AAAATGCACG | 1.01 |
| TATGGGTGC | 1.07 |
| TCCCGCTCAG | 1.23 |
| ACTGAATTGT | 1 |
| GATCATATCA | 0.986 |
| TGCTAGTGTT | 1.06 |
| GCGTCAAGGA | 1.07 |
| TAAACTGTAG | 1.02 |
| ATGCGATTAG | 0.971 |
| TTACTAATGC | 1.03 |
| CATAGGGTGG | 1 |
| TTGACATCG | 0.983 |
| TATAGGAATT | 1.01 |

| Sequence | switch fluorescence ratio |
| --- | --- |
| TCAGTATCCA | 0.926 |
| ATTCGGTGCC | 1 |
| ACAAGAACGC | 1.09 |
| GCTACTTCAT | 1.06 |
| TTTGCGAGTT | 1.04 |
| CTCTATTTGT | 1.01 |
| AGGCTAATGC | 0.979 |
| ATTTGGAAAA | 1.1 |
| TAGGCTGACA | 1.02 |
| ACGTTTGCGG | 1.04 |
| TACAAGTCCA | 1.03 |
| CTAACGATAT | 1.09 |
| ATTATGTACG | 1.09 |
| GCAGTTCCGA | 1.07 |
| TCTGGGAGTG | 0.999 |
| ATTCACGAAT | 1.01 |
| CTTACACGTT | 1.02 |
| GGTTTGAAGA | 0.976 |
| AGCGGTCGCG | 0.965 |
| CTCTGGATTG | 1.06 |
| AGGAACCTCT | 1.02 |
| TAGGGTAATA | 0.999 |
| GAGAGGGTT | 1.02 |

| Sequence | switch fluorescence ratio |
| --- | --- |
| GATGAAATAA | 1.03 |
| GGTTCATAGG | 1.02 |
| AAAAACGACT | 1.05 |
| GGTAGACCTT | 1.18 |
| AGCTTCAGCC | 1 |
| TAAATCGCCA | 1.04 |
| ACCTGTTAAT | 1.06 |
| GACCCAACTA | 0.986 |
| ACGTTTTCTT | 1.02 |
| TTGATGGGAA | 1.01 |
| GGGGACAGGA | 0.937 |
| CCGCGGGTGT | 2.1 |
| TTCAGCTCCC | 1.12 |
| ACCGAAAACC | 1.07 |
| AAAGCAGCTT | 0.998 |
| GTCGACGCCA | 1.13 |
| ACGACGCTTG | 1.44 |
| CGTGGCGTTT | 0.982 |
| CAACAAGGAC | 1.39 |
| AGATAGGATG | 0.989 |
| TCGAGGATC | 1.04 |
| GGGGACCTTC | 1.19 |
| AGCCAATCGT | 0.984 |

| Sequence | switch fluorescence ratio |
| --- | --- |
| TTAACGTTT | 0.987 |
| AGCTGGGCAC | 1 |
| GTGTTTATCC | 0.976 |
| ATCTTGGGAT | 1 |
| GCGTCGGCTT | 0.967 |
| TGCTATGAAG | 1.03 |
| CACTGTTGGC | 1.01 |
| TTCGGAGGTT | 0.974 |
| ACTGTGGCT | 1.03 |
| GGGAGATGAG | 1.01 |
| TCTGGGAGCG | 0.984 |
| TTGCACGACG | 1.03 |
| GACAGTGCAA | 1.3 |
| CTGGATGTAA | 0.982 |
| TTACTGTGGA | 1.01 |
| GGTTAGTATA | 0.941 |
| GAGATACAAG | 0.968 |
| CGGTGTGAAA | 1.12 |
| TTCGATTGAA | 0.98 |
| TTACTGTCCG | 1.02 |
| CCGAACACGT | 1.07 |
| TCTCTGGGGT | 1.06 |
| ATGTGAGTAA | 1.02 |

| Sequence | switch fluorescence ratio |
| --- | --- |
| CCGGGAGTAT | 1.3 |
| ACGTTCTACA | 1.2 |
| CGTACGGAGG | 0.965 |
| TGTAAGAGTT | 0.979 |
| ATAGAGGTGC | 1.02 |
| GGGTGCGAAT | 1.17 |
| AGGAAAGTCG | 0.996 |
| CTAACGGGGG | 0.993 |
| GCAGCACACA | 1.34 |
| GTTAATCAAC | 1.01 |
| AAATTACGGT | 1.09 |
| TTGCTGTGTT | 1.03 |
| CAATACTACG | 1.21 |
| CTCTCTGTTC | 1.06 |
| AAGTTATCGG | 1.01 |
| TGGGGACCGC | 1.25 |
| TATACGAAGG | 1.01 |
| AGATGGACAT | 1.01 |
| TTGGGTTATA | 0.976 |
| CGGCTAAAAC | 1.33 |
| AGGGGTAGAG | 0.935 |
| CCATTACCTT | 1.07 |
| CATTCCCTA | 1.01 |

| Sequence | switch fluorescence ratio |
| --- | --- |
| CGCTAAAGTT | 0.992 |
| GCGTTAGACG | 1.04 |
| GTCCTTTTGC | 1 |
| ATCGGTATCG | 0.957 |
| GGAGTATTTC | 1.01 |
| GAACGTTTCT | 1 |
| TTTATGCGTC | 0.969 |
| CGGCTTGTAT | 1.01 |
| TAAGAGTAA | 0.973 |
| GCAGCAACG | 1.18 |
| AGTCTCACAG | 1.03 |
| TCTGTACATA | 1.08 |
| CAGGCCGCAC | 2.73 |
| CGCCGGCAAA | 1.05 |
| TGTTATACCC | 1.03 |
| TTTGGCACTT | 1.04 |
| AGAGGCAGCG | 1.04 |
| AATGAAGTCT | 1.42 |
| TACTGGTCGG | 0.974 |
